Data taken from ChEMBL document CHEMBL4888484, “Replenishing the malaria drug discovery pipeline: Screening and hit evaluation of the MMV Hit Generation Library 1 (HGL1) against asexual blood stage Plasmodium falciparum ,using a nano luciferase reporter read-out” (2022).
About 540 (0.36%) of roughly 150,000 compounds showed an effect of 50% or more. The list shows a part of the results.

System: Plasmodium falciparum
Assay: Primary screen in NF54 nanoGlo assay, in single point, at 2uM, 72h; a lower Z score goes with more inhibition
Type: functional, Erythrocyte
Details: timepoint 72 hour

SMILES	% Inhibition	Z score
COc1ccc(OCc2nc(CCN(C)C(=O)CC3CCCC3)no2)cc1	0%	0.06
CN(C)S(=O)(=O)N[C@H]1CCN(C(=O)CCc2ccc(O)cc2)C[C@@H]1O	5%	-0.86
c1ccc2c(NC3CC(N4CCCCC4)C3)ncnc2c1 (centres undefined)	-3%	0.62
Cc1ccc(C(=O)N(Cc2ccc(-c3cccc(Cl)c3)o2)[C@H]2CCS(=O)(=O)C2)cc1	-4%	0.57
Cc1cccc(C)c1CS(=O)(=O)NC(=O)[C@H]1CCC(C)(C)C1	-15%	1.48
Cc1cccc(Cn2cnc3c2c(=O)n(C[C@H]2CCCO2)c(=O)n3-c2ccccc2)c1	-3%	0.45
CNC(=O)c1cc(N(C)S(=O)(=O)c2cc(C)sc2C)ccn1	-7%	1
Cc1cccc(CN2CCN3CCN(C(=O)NCc4ccco4)CC[C@H]3C2=O)c1	-17%	2.34
Cc1csc(N2CCC(C(=O)N3CCC[C@](C)(CO)C3)CC2)n1	-8%	0.77
Cc1nc(COCc2ccccc2)n(-c2ccccc2)n1	18%	-2.25
CC1CCN([C@@H]2[C@H](O)[C@H](CO)O[C@@H]2CNC(=O)C2CCCC2)CC1	16%	-1.87
Cc1ccc(S(=O)(=O)N2CCC3(CC[C@H](CN4CCN(C)CC4)O3)CC2)cc1F	-8%	1.03
COc1ccc([C@H]2C[C@H]3CC[C@@H](C2)N3C(=O)CN2CCNC(=O)C2)cc1	0%	-0.01
COCCNC(=O)[C@@H](C)[C@@H]1CCc2c(C)cc(OCCOC)c(C)c2[C@@H]1O	13%	-1.47
COc1ccccc1CC(=O)N1CC(OC[C@H]2CCOC2)C1	7%	-0.94
CCOc1ccc(NC(=O)N(Cc2c(C)nn(-c3cccc(F)c3)c2N2CCN(C(C)C)CC2)C(C)C)cc1	-10%	1.45
OC1(CNc2ccc3cc(Br)ccc3n2)CCOCC1	4%	-0.38
CC[C@H]1COCCN1C(=O)CN1CCCCCCC1	-18%	3.56
Cc1nc(C(C)C)sc1[C@H](C)OC(=O)c1cc(C(N)=O)cn1C	8%	-1.1
CCN(CC)C(=O)[C@@H](NC(=O)c1ccccc1)C1CCN(C(=O)c2ccco2)CC1	-8%	1.07
Cc1cccc(CN2CCC3(CCC(=O)N(C4CC4)C3)CC2)c1	-3%	0.54

SMILES	% Inhibition	Z score
CN1C(=O)[C@@H]2CC[C@H]1CN(S(=O)(=O)c1cc(Cl)c(Cl)s1)C2	-8%	1.18
CN(CC1=Cc2cc(Cl)cc(Cl)c2OC1)CC(C)(C)S(C)(=O)=O	-7%	0.95
Cc1ccn(CC(=O)NCc2ccc3c(c2)OCO3)c(=O)c1	-7%	0.9
CCCn1c(=O)sc2cc(NS(=O)(=O)c3ccc(C)c(C)c3)ccc21	2%	-0.25
COc1ccccc1C(C)NC(=O)N(C)CC1CCCC1O (centres undefined)	12%	-1.29
O=C(Nc1cc(-c2onc3c2CCCC3)ccc1Cl)C(F)(F)C(F)(F)C(F)(F)F	-10%	1.19
CC(C)N1C[C@@H](OCc2ccc(F)cc2)CN(C(=O)c2ccccc2N2CCC(=O)NC2=O)CC1=O	1%	-0.15
O=C(Cn1c2ccccc2c2ncn(Cc3ccccc3)c(=O)c21)Nc1cccc(F)c1	-7%	0.84
CCC(CC)C(=O)NC1CCN(C(C)C)CC1	13%	-1.61
O=C([C@@H]1COc2ccccc2C1)N1CCCC1	-4%	0.63
CCn1nc(C)c(COc2cccc3c2[C@@H](O)CC(C)(C)O3)n1	5%	-0.65
Cc1ccccc1CNCCOCCO	29%	-3.23
CN(CCCCC1CCOCC1)C[C@@H]1CCCO1	-1%	0.14
O=C(NCc1cc(N2CCOCC2)ncn1)c1cnn2c1CCCC2	-13%	1.18
CC[C@H](NC(=O)C(C)(C)NC(=O)Nc1ccccc1)c1nccs1	-7%	0.97
O=C(Nc1ccccc1)N[C@@H](N1CCOCC1)C(Cl)(Cl)Cl	5%	-0.66
O=C(NCCc1nc(C2CC2)cc(C(F)(F)F)n1)c1ccco1	-15%	1.71
Cc1c(Cl)cc2c(c1Cl)CCCN2C(=O)c1ccc[n+]([O-])c1	9%	-1.19
CC(C)OCc1ccccc1NC(=O)N[C@@]1(C)CCOC1	-7%	0.92
CN1N=C(C(=O)Nc2ccc(N3CCOCC3)nc2)CCC1=O	-3%	0.37
Cc1ncc(CN(C)C(=O)[C@@H]2CCCN2CC(F)(F)F)s1	4%	-0.35

SMILES	% Inhibition	Z score
Cc1nn(C(C)C)c(C)c1CN(C)C(=O)[C@@H]1CCCCO1	2%	-0.32
COc1cc(C)ccc1OCCN1CC[C@](C)(O)[C@H](C)C1	-3%	0.51
CC(C)(C)CCC(=O)NCc1cnc2c(c1)CCC2	-2%	0.39
CN(Cc1nc2cc(Cl)ccc2[nH]1)C(=O)CCc1nnc(C2CCCCC2)o1	-5%	0.63
Cc1ccc(CNC(=O)CCNc2c(-c3cccc(F)c3)nc3cnccn23)o1	-18%	2.57
CN(C)S(=O)(=O)N1Cc2ccccc2C1	-18%	2.3
CCn1cc(Br)c(C(=O)NCCc2cn(C)cn2)n1	-7%	1.22
Fc1cccc(CNCc2cc3cc4c(cc3nc2N2CCCC2)OCO4)c1	-10%	1.29
Cc1csc([C@@H]2CN(C(=O)c3c(Cl)c4ccccc4n3C)CCO2)n1	0%	0.03
CCN1C(=O)[C@@H]2CC3(CCN(C(=O)c4c[nH]c5ccccc45)CC3)CN2C1=O	-4%	0.49
O=C(c1cc(S(=O)(=O)N2CCCC2=O)c(Cl)cc1Cl)N1CCCCC1	1%	-0.21
CC1(C)O[C@H]2[C@@H](O1)[C@@H](C(=O)NCCC(=O)Nc1nccs1)O[C@@H]1OC(C)(C)O[C@@H]12	-16%	2.43
CCCCc1nc(CN(CCc2ccc(OC)c(OC)c2)Cc2ccncc2)c[nH]1	15%	-2.67
C[C@]1(CNC(=O)N2CCC2)CCOC2(CCC2)C1	0%	0.07
COc1ccc(CNC(=O)c2c(O)c3cccc4c3n(c2=O)CC4)cc1	-14%	1.22
Cc1cc(C(=O)N2CCN(CC3CCC3)CC2)c2cccc(Cl)c2n1	-4%	0.81
O=C(CCN1CCCCC1=O)NC[C@H]1CC[C@H](CO)CC1	-20%	2.19
Cc1cccc(C)c1Oc1ncccc1CNC(=O)[C@H]1CC(=O)N(C(C)C)C1	-14%	1.33
CN(CC1(CO)CCCC1)S(=O)(=O)c1cn[nH]c1	-6%	1.27
Cc1noc(C)c1CCC(=O)NC1C2CCCOC2C1(C)C (centres undefined)	-10%	1.44
O=C(O)c1ccc(C2Nc3ccc(Cl)cc3C3OCCCC23)cc1 (centres undefined)	-8%	0.97

SMILES	% Inhibition	Z score
COC(=O)c1cn(-c2cccc(C(F)(F)F)c2)cc2c(O)nnc1-2	-15%	2.5
COc1ncccc1CCNC(=O)[C@@]12C[C@@H]1COC21CCC1	-8%	0.81
CCCC1(C(=O)O)CCN([C@H]2CCCOC2)CC1	-4%	0.46
C[C@@H](C1CCN(C)CC1)N(C)C(=O)c1ccc(CNC(=O)OC(C)(C)C)o1	-9%	0.98
N#CCN(C1CC1)S(=O)(=O)CC(=O)c1ccccc1	7%	-1.19
C[C@H](NC(=O)c1nc(-c2ccccc2)nn1C)c1ncon1	1%	-0.1
COc1ccc(C(=O)N2CC(C(=O)NCCc3ccccc3)CC(c3ccccc3)C2)cc1 (centres undefined)	-13%	1.26
COc1cccc(-c2nn([C@@H](C)C(=O)Nc3cccc(Cl)c3C)c(=O)c3noc(C)c23)c1	-9%	0.9
COc1cccc([C@@H](O)CN(Cc2ccccc2)S(=O)(=O)Cc2ccccc2)c1	-2%	0.17
CC(C)(C)n1nnc(CNC(=O)Nc2cccc3c2OCCC3)n1	1%	-0.09
COCCN1CCCn2nc([C@H]3CCCN(Cc4ccc(C)o4)C3)cc2C1=O	-8%	1.55
Cc1cccc(NC(=O)N2CCC(N3CCC[C@H](C(=O)N4CCCC4)C3)CC2)c1	12%	-1.59
Cc1cccc(NS(=O)(=O)c2cc(-c3nc(-c4ccc(Cl)cc4)no3)cs2)c1C	-5%	0.79
CNc1nc(CN2CCN(c3nccc(N)n3)C[C@@H](O)C2)cs1	-5%	0.99
O=C(Cc1cccnc1)N[C@H]1CCOC2(CCOCC2)C1	-5%	0.99
CCOCCC(=O)NC(c1ccc2c(c1)CCO2)[C@H]1C[C@@H](O)C1 (some centres undefined)	10%	-1.32
NS(=O)(=O)c1cccc(-n2ccnc2-c2ccc3cccc(F)c3n2)c1	-5%	0.69
CCN1C(=O)COc2ccc(NC(=O)NCc3nnc(C)o3)cc21	-9%	0.92
Cc1n[nH]cc1CN(C)C(=O)CCc1cn[nH]c1	-11%	2.09
